Measured values reported in PMC4336329 (PLoS ONE, 2015).
About 2,200 (0.71%) of roughly 310,000 compounds showed an effect of 50% or more. The effect is printed as a negative number. This is one part of the list.

molecular target: human ether-à-go-go-related gene (hERG) potassium channel (human, UniProt Q12809); assay: primary screen, population patch clamp on CHO cells stably expressing hERG
Sequence (Q12809 whole entry, looked up): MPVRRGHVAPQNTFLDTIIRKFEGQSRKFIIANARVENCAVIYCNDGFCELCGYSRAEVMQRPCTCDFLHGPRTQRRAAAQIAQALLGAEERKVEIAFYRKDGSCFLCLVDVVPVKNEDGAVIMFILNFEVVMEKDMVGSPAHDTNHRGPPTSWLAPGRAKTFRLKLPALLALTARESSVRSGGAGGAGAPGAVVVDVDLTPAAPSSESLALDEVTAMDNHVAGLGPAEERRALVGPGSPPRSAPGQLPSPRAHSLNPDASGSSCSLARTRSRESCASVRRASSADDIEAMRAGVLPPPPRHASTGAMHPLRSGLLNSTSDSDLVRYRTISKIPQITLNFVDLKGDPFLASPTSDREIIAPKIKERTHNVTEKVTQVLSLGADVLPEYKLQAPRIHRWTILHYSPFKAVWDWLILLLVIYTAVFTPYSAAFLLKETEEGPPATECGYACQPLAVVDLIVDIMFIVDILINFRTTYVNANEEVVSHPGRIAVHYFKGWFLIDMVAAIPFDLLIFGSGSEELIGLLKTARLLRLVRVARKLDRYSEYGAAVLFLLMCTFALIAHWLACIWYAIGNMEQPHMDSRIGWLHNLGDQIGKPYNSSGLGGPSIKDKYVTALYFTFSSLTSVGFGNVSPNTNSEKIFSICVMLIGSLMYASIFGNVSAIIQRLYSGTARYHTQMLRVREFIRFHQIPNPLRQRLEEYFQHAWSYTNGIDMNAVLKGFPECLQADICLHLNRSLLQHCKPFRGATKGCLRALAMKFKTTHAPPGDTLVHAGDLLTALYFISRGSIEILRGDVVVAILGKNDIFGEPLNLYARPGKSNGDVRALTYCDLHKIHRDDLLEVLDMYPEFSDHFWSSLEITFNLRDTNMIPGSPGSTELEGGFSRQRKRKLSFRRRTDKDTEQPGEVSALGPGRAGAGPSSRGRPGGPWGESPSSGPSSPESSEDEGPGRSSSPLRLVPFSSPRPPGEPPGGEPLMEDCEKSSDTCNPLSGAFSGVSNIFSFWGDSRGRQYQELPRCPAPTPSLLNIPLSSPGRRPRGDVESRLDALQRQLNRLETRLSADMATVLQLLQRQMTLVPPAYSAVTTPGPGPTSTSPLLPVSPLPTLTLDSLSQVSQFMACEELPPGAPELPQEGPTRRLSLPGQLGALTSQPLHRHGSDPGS

| Compound | hERG current change (%, negative = inhibition) at 1uM [%] |
| --- | --- |
| O=C(Cc1csc(-c2ccccc2)n1)NCc1cccs1 | 8.81 |
| CCCNC(=O)C1CCN(S(=O)(=O)c2cccs2)CC1 | 20.6 |
| CN(CC(=O)NCc1ccc(F)cc1)S(=O)(=O)c1ccc2c(c1)c(=O)n(C)c(=O)n2C | 4.64 |
| O=C(CSc1nnc(SCc2ccccc2)s1)N/N=C/c1ccc(C(=O)O)cc1 | 10.3 |
| Cc1ccc([N+](=O)[O-])cc1S(=O)(=O)Nc1ccc(C(=O)N2CCN(C(=O)c3ccco3)CC2)cc1 | 13.4 |
| COCC(C)NC(=O)CCS(=O)(=O)c1nc(-c2ccc(OC)cc2)cc(C(F)(F)F)n1 (stereo not shown) | 15.6 |
| CCc1ccc(OC(=O)c2cccnc2)cc1 | 16.7 |
| Fc1ccccc1OCCSc1nc2ccccc2o1 | 12.6 |
| Cc1ccc(S(=O)(=O)NCC(=O)Nc2ccc3c(c2)OCO3)cc1 | 8.92 |
| Cc1cc(C)cc(C(=O)NCC(=O)OCN2C(=O)c3ccccc3C2=O)c1 | 11.5 |
| Cc1cc(C)cc(OCCn2nnc3ccccc32)c1 | 17.4 |
| O=C(Nc1ccc2ccccc2n1)c1ccccc1Cl | 8.41 |
| O=S(=O)(NCCc1ccccc1F)c1cccc(S(=O)(=O)N2CCOCC2)c1 | 8.53 |
| O=C(NCCc1ccccc1)/C(=C\c1cccc([N+](=O)[O-])c1)NC(=O)c1ccco1 | -50.6 |
| COc1ccc(COc2cccnc2N)cc1 | 16.7 |
| Clc1ccc(-c2nc(N3CCOCC3)nc3ccccc23)cc1 | 12.3 |
| CCn1c(SCC(=O)OC)nnc1-c1ccncc1 | 8 |
| CCN(CC)C(=O)Cn1cc(C(=O)C(=O)NCC2COc3ccccc3O2)c2ccccc21 (stereo not shown) | -10.6 |
| COc1cc2c(cc1OC)CN(C(=O)CCNS(=O)(=O)c1ccc(Br)cc1)CC2 | 4.55 |
| O=C(NCc1cccs1)C1CCN(S(=O)(=O)c2cccc3cccnc23)CC1 | 6.69 |
| Cc1cc(NC(=O)C2CCCC2)n(-c2nc3ccccc3[nH]2)n1 | 7.38 |
| CCOc1ccc(S(=O)(=O)N2CCCCC2)cc1NC(=O)Cc1cccc(C(F)(F)F)c1 | 10.6 |
| COc1ccc(CC(=O)NCC2COc3ccccc3O2)cc1 (stereo not shown) | 4.8 |
| CCS(=O)(=O)CCn1c([N+](=O)[O-])cnc1C | 8.99 |
| NC(=O)c1c(NC(=O)c2ccc([N+](=O)[O-])o2)sc2c1CCCC2 | 19.9 |
